Experiments:
[1] = target: high-affinity hIL-2 receptor (IL-2Rαβγ) on NK-92 cells (human) (UniProt P01589); assay: cell-based or functional assay
[2] = target: intermediate affinity hIL-2 receptor complex (IL-2Rβγ) on TF1+IL-2Rβ cells (human) (UniProt P14784); assay: cell-based or functional assay
Chain of UniProt P14784 (P14784 27-551, chain 1 of 2): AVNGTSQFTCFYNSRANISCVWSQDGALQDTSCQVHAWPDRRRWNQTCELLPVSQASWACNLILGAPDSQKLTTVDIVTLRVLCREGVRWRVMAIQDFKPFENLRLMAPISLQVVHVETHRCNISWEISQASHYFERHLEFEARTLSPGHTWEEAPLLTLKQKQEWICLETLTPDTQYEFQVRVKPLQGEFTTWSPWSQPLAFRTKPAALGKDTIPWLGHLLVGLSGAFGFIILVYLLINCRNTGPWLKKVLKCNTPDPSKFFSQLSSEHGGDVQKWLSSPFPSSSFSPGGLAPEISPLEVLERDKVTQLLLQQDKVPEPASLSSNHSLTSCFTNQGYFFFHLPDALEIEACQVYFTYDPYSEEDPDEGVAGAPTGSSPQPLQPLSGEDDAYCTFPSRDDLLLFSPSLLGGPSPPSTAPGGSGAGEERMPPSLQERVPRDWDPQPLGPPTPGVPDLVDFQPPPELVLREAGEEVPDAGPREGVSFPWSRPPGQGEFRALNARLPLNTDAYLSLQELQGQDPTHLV
Chain of UniProt P14784 (chain, as listed by the source, chain 2 of 2): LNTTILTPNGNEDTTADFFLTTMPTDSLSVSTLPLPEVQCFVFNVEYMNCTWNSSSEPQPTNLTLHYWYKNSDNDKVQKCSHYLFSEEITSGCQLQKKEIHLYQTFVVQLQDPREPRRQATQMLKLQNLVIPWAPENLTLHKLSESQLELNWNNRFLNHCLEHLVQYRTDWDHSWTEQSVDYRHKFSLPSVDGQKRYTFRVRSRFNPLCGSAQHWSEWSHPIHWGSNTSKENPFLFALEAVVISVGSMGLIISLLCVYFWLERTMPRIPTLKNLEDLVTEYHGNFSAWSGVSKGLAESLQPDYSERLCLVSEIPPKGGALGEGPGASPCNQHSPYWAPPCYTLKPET

Chain of UniProt P01589 (P01589 22-272, chain 1 of 3): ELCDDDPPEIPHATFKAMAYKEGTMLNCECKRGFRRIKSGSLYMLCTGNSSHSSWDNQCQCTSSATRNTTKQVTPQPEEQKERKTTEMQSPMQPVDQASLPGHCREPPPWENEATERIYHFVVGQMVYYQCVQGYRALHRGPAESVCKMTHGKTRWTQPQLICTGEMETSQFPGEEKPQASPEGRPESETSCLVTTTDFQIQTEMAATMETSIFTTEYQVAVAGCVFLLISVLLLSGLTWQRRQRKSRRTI
Chain of UniProt P01589 (chain, as listed by the source, chain 2 of 3): as the sequence (P14784 27-551, chain 1 of 2) above
Chain of UniProt P01589 (chain, as listed by the source, chain 3 of 3): as the sequence (chain, as listed by the source, chain 2 of 2) above

Binder | Fold change from hIL-2 (NK-92) [1] | Fold change from hIL-2 (TF1 + IL-2Rβ) [2]
1H3-hIgG1-L6-hIL-2 (D20Y/E95R) (protein) heavy: EVQLVESGGGLVQPGRSLKLSCAVSGFTFSDYAMAWVRQAPKKGLEWVATISYDGSRTYYRDSVKGRFTISRDNAKITLYLQMDSLRSEDTATYYCARHGSGYFDYWGQGVMVTVSS[not shown - about 450 residues with a human IgG1 Fc and changes] light: DTVLTQSPALAVSPGERVTISCRASESVRTGVHWYQQKPGQQPKLLIYGASNLESGVPARFSGSGSGTDFTLTIDPVEADDTATYFCQQSWNDPFTFGSGTKLEIKRTVAAPSVFIFPPSDEQLKSGTASVVCLLNNFYPREAKVQWKVDNALQSGNSQESVTEQDSKDSTYSLSSTLTLSKADYEKHKVYACEVTHQGLSSPVTKSFNRGEC | 12 fold | 5 fold
1H3-hIgG1-L6-hIL-2 (F42R/D20A) (protein) heavy: EVQLVESGGGLVQPGRSLKLSCAVSGFTFSDYAMAWVRQAPKKGLEWVATISYDGSRTYYRDSVKGRFTISRDNAKITLYLQMDSLRSEDTATYYCARHGSGYFDYWGQGVMVTVSS[not shown - about 450 residues with a human IgG1 Fc and changes] light: DTVLTQSPALAVSPGERVTISCRASESVRTGVHWYQQKPGQQPKLLIYGASNLESGVPARFSGSGSGTDFTLTIDPVEADDTATYFCQQSWNDPFTFGSGTKLEIKRTVAAPSVFIFPPSDEQLKSGTASVVCLLNNFYPREAKVQWKVDNALQSGNSQESVTEQDSKDSTYSLSSTLTLSKADYEKHKVYACEVTHQGLSSPVTKSFNRGEC | 10 fold | 2 fold
1H3-hIgG1-L6-hIL-2 (L72D/D20A) (protein) heavy: EVQLVESGGGLVQPGRSLKLSCAVSGFTFSDYAMAWVRQAPKKGLEWVATISYDGSRTYYRDSVKGRFTISRDNAKITLYLQMDSLRSEDTATYYCARHGSGYFDYWGQGVMVTVSS[not shown - about 450 residues with a human IgG1 Fc and changes] light: DTVLTQSPALAVSPGERVTISCRASESVRTGVHWYQQKPGQQPKLLIYGASNLESGVPARFSGSGSGTDFTLTIDPVEADDTATYFCQQSWNDPFTFGSGTKLEIKRTVAAPSVFIFPPSDEQLKSGTASVVCLLNNFYPREAKVQWKVDNALQSGNSQESVTEQDSKDSTYSLSSTLTLSKADYEKHKVYACEVTHQGLSSPVTKSFNRGEC | 14 fold | 2 fold
1H3-hIgG1-L6-hIL-2 (D20Y/E95A) (protein) heavy: EVQLVESGGGLVQPGRSLKLSCAVSGFTFSDYAMAWVRQAPKKGLEWVATISYDGSRTYYRDSVKGRFTISRDNAKITLYLQMDSLRSEDTATYYCARHGSGYFDYWGQGVMVTVSS[not shown - about 450 residues with a human IgG1 Fc and changes] light: DTVLTQSPALAVSPGERVTISCRASESVRTGVHWYQQKPGQQPKLLIYGASNLESGVPARFSGSGSGTDFTLTIDPVEADDTATYFCQQSWNDPFTFGSGTKLEIKRTVAAPSVFIFPPSDEQLKSGTASVVCLLNNFYPREAKVQWKVDNALQSGNSQESVTEQDSKDSTYSLSSTLTLSKADYEKHKVYACEVTHQGLSSPVTKSFNRGEC | 11 fold | 5 fold
1H3-hIgG1-L6-hIL-2 (F42H/D20A) (protein) heavy: EVQLVESGGGLVQPGRSLKLSCAVSGFTFSDYAMAWVRQAPKKGLEWVATISYDGSRTYYRDSVKGRFTISRDNAKITLYLQMDSLRSEDTATYYCARHGSGYFDYWGQGVMVTVSS[not shown - about 450 residues with a human IgG1 Fc and changes] light: DTVLTQSPALAVSPGERVTISCRASESVRTGVHWYQQKPGQQPKLLIYGASNLESGVPARFSGSGSGTDFTLTIDPVEADDTATYFCQQSWNDPFTFGSGTKLEIKRTVAAPSVFIFPPSDEQLKSGTASVVCLLNNFYPREAKVQWKVDNALQSGNSQESVTEQDSKDSTYSLSSTLTLSKADYEKHKVYACEVTHQGLSSPVTKSFNRGEC | 12 fold | 2 fold
1H3-hIgG1-L6-hIL-2 (E62Y/D20A) (protein) heavy: EVQLVESGGGLVQPGRSLKLSCAVSGFTFSDYAMAWVRQAPKKGLEWVATISYDGSRTYYRDSVKGRFTISRDNAKITLYLQMDSLRSEDTATYYCARHGSGYFDYWGQGVMVTVSS[not shown - about 450 residues with a human IgG1 Fc and changes] light: DTVLTQSPALAVSPGERVTISCRASESVRTGVHWYQQKPGQQPKLLIYGASNLESGVPARFSGSGSGTDFTLTIDPVEADDTATYFCQQSWNDPFTFGSGTKLEIKRTVAAPSVFIFPPSDEQLKSGTASVVCLLNNFYPREAKVQWKVDNALQSGNSQESVTEQDSKDSTYSLSSTLTLSKADYEKHKVYACEVTHQGLSSPVTKSFNRGEC | 14 fold | 3 fold
1H3-hIgG1-L6-hIL-2 (E62A/D20A) (protein) heavy: EVQLVESGGGLVQPGRSLKLSCAVSGFTFSDYAMAWVRQAPKKGLEWVATISYDGSRTYYRDSVKGRFTISRDNAKITLYLQMDSLRSEDTATYYCARHGSGYFDYWGQGVMVTVSS[not shown - about 450 residues with a human IgG1 Fc and changes] light: DTVLTQSPALAVSPGERVTISCRASESVRTGVHWYQQKPGQQPKLLIYGASNLESGVPARFSGSGSGTDFTLTIDPVEADDTATYFCQQSWNDPFTFGSGTKLEIKRTVAAPSVFIFPPSDEQLKSGTASVVCLLNNFYPREAKVQWKVDNALQSGNSQESVTEQDSKDSTYSLSSTLTLSKADYEKHKVYACEVTHQGLSSPVTKSFNRGEC | 14 fold | 2 fold
1H3-hIgG1-L6-hIL-2 (E61A/D20A) (protein) heavy: EVQLVESGGGLVQPGRSLKLSCAVSGFTFSDYAMAWVRQAPKKGLEWVATISYDGSRTYYRDSVKGRFTISRDNAKITLYLQMDSLRSEDTATYYCARHGSGYFDYWGQGVMVTVSS[not shown - about 450 residues with a human IgG1 Fc and changes] light: DTVLTQSPALAVSPGERVTISCRASESVRTGVHWYQQKPGQQPKLLIYGASNLESGVPARFSGSGSGTDFTLTIDPVEADDTATYFCQQSWNDPFTFGSGTKLEIKRTVAAPSVFIFPPSDEQLKSGTASVVCLLNNFYPREAKVQWKVDNALQSGNSQESVTEQDSKDSTYSLSSTLTLSKADYEKHKVYACEVTHQGLSSPVTKSFNRGEC | 14 fold | 2 fold

The remaining lines, values ahead:

Fold change from hIL-2 (NK-92) [1] | Fold change from hIL-2 (TF1 + IL-2Rβ) [2] | Binder
11 fold | 2 fold | 1H3-hIgG1-L6-hIL-2 (Y45K/D20A) (protein) heavy: EVQLVESGGGLVQPGRSLKLSCAVSGFTFSDYAMAWVRQAPKKGLEWVATISYDGSRTYYRDSVKGRFTISRDNAKITLYLQMDSLRSEDTATYYCARHGSGYFDYWGQGVMVTVSS[not shown - about 450 residues with a human IgG1 Fc and changes] light: DTVLTQSPALAVSPGERVTISCRASESVRTGVHWYQQKPGQQPKLLIYGASNLESGVPARFSGSGSGTDFTLTIDPVEADDTATYFCQQSWNDPFTFGSGTKLEIKRTVAAPSVFIFPPSDEQLKSGTASVVCLLNNFYPREAKVQWKVDNALQSGNSQESVTEQDSKDSTYSLSSTLTLSKADYEKHKVYACEVTHQGLSSPVTKSFNRGEC
11 fold | 1 fold | 1H3-hIgG1-L6-hIL-2 (Y45R/D20A) (protein) heavy: EVQLVESGGGLVQPGRSLKLSCAVSGFTFSDYAMAWVRQAPKKGLEWVATISYDGSRTYYRDSVKGRFTISRDNAKITLYLQMDSLRSEDTATYYCARHGSGYFDYWGQGVMVTVSS[not shown - about 450 residues with a human IgG1 Fc and changes] light: DTVLTQSPALAVSPGERVTISCRASESVRTGVHWYQQKPGQQPKLLIYGASNLESGVPARFSGSGSGTDFTLTIDPVEADDTATYFCQQSWNDPFTFGSGTKLEIKRTVAAPSVFIFPPSDEQLKSGTASVVCLLNNFYPREAKVQWKVDNALQSGNSQESVTEQDSKDSTYSLSSTLTLSKADYEKHKVYACEVTHQGLSSPVTKSFNRGEC
14 fold | 3 fold | 1H3-hIgG1-L6-hIL-2 (R38Y/D20A) (protein) heavy: EVQLVESGGGLVQPGRSLKLSCAVSGFTFSDYAMAWVRQAPKKGLEWVATISYDGSRTYYRDSVKGRFTISRDNAKITLYLQMDSLRSEDTATYYCARHGSGYFDYWGQGVMVTVSS[not shown - about 450 residues with a human IgG1 Fc and changes] light: DTVLTQSPALAVSPGERVTISCRASESVRTGVHWYQQKPGQQPKLLIYGASNLESGVPARFSGSGSGTDFTLTIDPVEADDTATYFCQQSWNDPFTFGSGTKLEIKRTVAAPSVFIFPPSDEQLKSGTASVVCLLNNFYPREAKVQWKVDNALQSGNSQESVTEQDSKDSTYSLSSTLTLSKADYEKHKVYACEVTHQGLSSPVTKSFNRGEC
13 fold | 3 fold | 1H3-hIgG1-L6-hIL-2 (R38T/D20A) (protein) heavy: EVQLVESGGGLVQPGRSLKLSCAVSGFTFSDYAMAWVRQAPKKGLEWVATISYDGSRTYYRDSVKGRFTISRDNAKITLYLQMDSLRSEDTATYYCARHGSGYFDYWGQGVMVTVSS[not shown - about 450 residues with a human IgG1 Fc and changes] light: DTVLTQSPALAVSPGERVTISCRASESVRTGVHWYQQKPGQQPKLLIYGASNLESGVPARFSGSGSGTDFTLTIDPVEADDTATYFCQQSWNDPFTFGSGTKLEIKRTVAAPSVFIFPPSDEQLKSGTASVVCLLNNFYPREAKVQWKVDNALQSGNSQESVTEQDSKDSTYSLSSTLTLSKADYEKHKVYACEVTHQGLSSPVTKSFNRGEC
14 fold | 2 fold | 1H3-hIgG1-L6-hIL-2 (R38W/D20A) (protein) heavy: EVQLVESGGGLVQPGRSLKLSCAVSGFTFSDYAMAWVRQAPKKGLEWVATISYDGSRTYYRDSVKGRFTISRDNAKITLYLQMDSLRSEDTATYYCARHGSGYFDYWGQGVMVTVSS[not shown - about 450 residues with a human IgG1 Fc and changes] light: DTVLTQSPALAVSPGERVTISCRASESVRTGVHWYQQKPGQQPKLLIYGASNLESGVPARFSGSGSGTDFTLTIDPVEADDTATYFCQQSWNDPFTFGSGTKLEIKRTVAAPSVFIFPPSDEQLKSGTASVVCLLNNFYPREAKVQWKVDNALQSGNSQESVTEQDSKDSTYSLSSTLTLSKADYEKHKVYACEVTHQGLSSPVTKSFNRGEC

Reference: US20240076343A1
